Among the data in PubChem BioAssay AID488969 (Vanderbilt High Throughput Screening Facility, 2010) are z-score values, retold here.

Whole data set: some 110,000 compounds, median “z-score” near -0.1, cut for the highest 2% near 2. The list shows a part of the results. The source made the active and inactive calls.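 The calls were made as follows: active = z-score in the third read window above 3 or below -3; inactive = the rest.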

This assay has as its target Metabotropic glutamate receptor 8 (Rattus norvegicus) (UniProt P70579). Put plainly: rat mGluR8 modulators via GIRK flux, primary screen, cell-based, thallium flux, HTS (AID 488969). The note with it: HEK293 rat mGluR8, GIRK (G protein-gated inwardly rectifying potassium channel) thallium flux, FluoZin2; at 10 µM; stronger effect = higher value; submaximal glutamate (EC20) added with thallium.
UniProt P70579, sequence (P70579 whole entry, looked up): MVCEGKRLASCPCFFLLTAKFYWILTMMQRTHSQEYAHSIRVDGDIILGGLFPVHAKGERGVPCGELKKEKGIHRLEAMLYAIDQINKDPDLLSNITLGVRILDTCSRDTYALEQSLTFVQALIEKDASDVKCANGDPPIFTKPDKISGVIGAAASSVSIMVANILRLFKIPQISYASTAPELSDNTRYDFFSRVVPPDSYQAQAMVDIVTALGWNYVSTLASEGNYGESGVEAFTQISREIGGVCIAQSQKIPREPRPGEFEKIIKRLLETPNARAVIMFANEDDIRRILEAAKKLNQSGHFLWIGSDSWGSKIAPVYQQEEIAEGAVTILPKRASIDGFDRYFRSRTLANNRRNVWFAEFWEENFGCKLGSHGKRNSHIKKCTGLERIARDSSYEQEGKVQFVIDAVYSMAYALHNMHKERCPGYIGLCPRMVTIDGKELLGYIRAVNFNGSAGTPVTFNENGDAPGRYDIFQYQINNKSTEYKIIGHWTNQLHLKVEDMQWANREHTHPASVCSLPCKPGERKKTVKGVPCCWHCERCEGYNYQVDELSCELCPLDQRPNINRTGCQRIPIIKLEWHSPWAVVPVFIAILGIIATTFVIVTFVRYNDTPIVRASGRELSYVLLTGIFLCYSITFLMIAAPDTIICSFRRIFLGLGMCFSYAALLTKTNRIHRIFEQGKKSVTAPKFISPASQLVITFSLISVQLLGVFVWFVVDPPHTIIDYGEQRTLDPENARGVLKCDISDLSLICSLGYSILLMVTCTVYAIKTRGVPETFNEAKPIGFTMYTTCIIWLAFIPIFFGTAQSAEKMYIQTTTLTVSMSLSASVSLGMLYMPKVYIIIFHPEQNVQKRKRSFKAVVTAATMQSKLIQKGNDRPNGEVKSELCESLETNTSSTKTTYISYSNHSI
On to `Cc1cc(C(=O)COC(=O)C2=NNC(=O)CC2)c(C)n1-c1cccc(C(F)(F)F)c1`, for which the z-score was -0.144. Regarding `Cc1nn(CCC(=O)NNC(=S)NCC(C)C)c(C)c1Br`, the z-score is 1.47. The same measure for `CC(=O)c1cc2c(cc1NC(=O)CN1CCOCC1)OCO2`: 0.0756; for `Cc1ccc(-c2nc3ccccc3[nH]2)cc1NC(=O)c1sc2ccccc2c1Cl`: -0.199. For `Cc1c(OCc2ccccc2)c(=O)ccn1Cc1ccccc1`, the z-score was -0.292. On to `COc1ccc(NC(=O)CN(Cc2ccccc2)S(C)(=O)=O)cc1`, for which the z-score is -0.474. Consider `O=C(CC12CC3CC(C1)CC(CC(=O)NC1=NCCS1)(C3)C2)NC1=NCCS1`, for which the z-score was -0.0995. Take `CC(NC(=O)c1nn(C)c(=O)c2ccccc12)c1ccccc1` (centres undefined): the z-score was -0.0131. Consider `O=C(COc1ccc2ccccc2c1Br)N1CCN(c2ccccn2)CC1`, for which the z-score was -0.134. On to `COc1ccccc1NCCC(=O)OCC(=O)NC1CC1`, for which the z-score was -0.43. As to `Cc1cc(C(=O)Nc2nnc(-c3ccccc3)s2)no1`, the z-score is 0.114. Regarding `Cn1c(NCc2ccco2)nc2c1c(=O)n(Cc1ccc(Cl)c(Cl)c1)c(=O)n2C`, the z-score was 0.384. For `Cc1ccc(Oc2ccc(OCC(=O)NC(C)C(=O)O)cc2)cc1` (centres undefined), the z-score was -0.304. On to `CSCCC(C(=O)Nc1ccc2c(c1)OCO2)N1C(=O)c2ccccc2C1=O` (centres undefined), for which the z-score stood at 0.0184. The molecule `O=C(NC12CC3CC(CC(C3)C1)C2)c1ccccc1O` gave a z-score of 0.112. As to `CCOC(=O)c1c(NC(=O)c2ccccc2N(C)S(=O)(=O)c2ccccc2)sc2c1CCCC2`, the z-score was -0.168. `COc1ccc(-n2nnnc2SCC(=O)Nc2nnc(C)s2)cc1` showed a z-score of 0.0962.

With `Cc1ccc(S(=O)(=O)NCCc2nnc3ccc(SCC(=O)Nc4nc5ccccc5s4)nn23)cc1`, the z-score was determined as 0.128. In turn, `CCN(Cc1ccccc1)S(=O)(=O)c1cc(C(=O)NCC2CCCCC2)ccc1OC` displayed a z-score of 0.00418. For the molecule `Cc1noc(C)c1CSc1nc2ccccc2c(=O)n1-c1ccc(F)cc1F`, the z-score was -2.63. As for `CCCn1c(SCC(=O)Nc2cc(S(=O)(=O)N3CCOCC3)ccc2OC)n[nH]c1=O`, the z-score is -1.01.

As for `O=C(NCc1ccco1)c1cccc(NC(=O)c2ccco2)c1`, the z-score was -0.396.

Take `CC(C)Oc1ccc(-c2nn(-c3ccccc3)cc2/C=c2\sc3ncnn3c2=O)cc1`: the z-score was found to be 0.267. The same measure for `Cc1occc1C(=O)NNC(=O)Cc1ccccc1`: -0.102. The result for `Cc1cc(=O)n2[nH]c(-c3ccc(C(C)(C)C)cc3)cc2n1` reads 0.0684; that for `O=C(CSc1ccc2nnc(-c3ccccc3)n2n1)N1CCCc2ccccc21`, -1.37; that for `CC(C)(C)NS(=O)(=O)c1ccc(CCC(=O)O)cc1`, 0.132. The result for `Cn1cnc(S(=O)(=O)Nc2ccc(C(F)(F)F)cc2)c1` reads -0.0366; that for `CCN1CCN(CCNC(=O)CS(=O)(=O)Cc2nc(-c3ccc(C)cc3)oc2C)CC1`, -0.313.

`O=S(=O)(c1ccc(N2CCOCC2)cc1)N1CCOCC1` came in with a z-score of 0.51. `CCOc1nc2ccccc2nc1C` registered a z-score of 0.275. `CC(C)(C)c1ccc(OCC(=O)Nc2ccc(-c3nc4cccnc4o3)cc2)cc1`: the z-score was found to be 0.734. The result for `CC(=O)c1cccc(N(CC(=O)NCC2CCCO2)C(=O)CCC(=O)Nc2cc(C)on2)c1` (centres undefined) reads -0.0378.

In the case of `CCOC(=O)N1CCN(C2OC(=O)c3ccccc32)CC1` (centres undefined), the z-score is -0.364. Regarding `CCOC(=O)c1cnn(-c2cc(Oc3ccccc3C)ncn2)c1N`, the z-score was -0.0538. The same measure for `N#Cc1ccc(NC(=O)COC(=O)CNC(=O)C2CCCCC2)cc1`: -0.185.

`c1ccc(-c2nnc(-c3ccccn3)nc2NC2CCCCC2)cc1`: the z-score is -0.00506. On to `C=CCNC(=O)c1onc(CSc2ccccc2C)c1C(=O)O`, for which the z-score was -0.163. As to `O=C(CN1CCN(S(=O)(=O)c2ccc(Br)cc2)CC1)N/N=C/c1cc([N+](=O)[O-])ccc1Cl`, the z-score is -0.0772. Consider `COc1ccc(C2Nc3ccccc3C(=O)N2c2ccccc2)cc1COc1ccccn1` (centres undefined), for which the z-score is -0.422. The result for `COc1ccc(Cl)cc1NC(=O)CC(C)c1ccccc1` (centres undefined) reads -0.123. In the case of `COc1ccc([N+](=O)[O-])cc1N(CC(O)CN(C)C)S(=O)(=O)c1ccccc1` (centres undefined), the z-score is -0.00357. As to `CC(C)c1ccc(NC(=O)C(c2ccc3c(c2)OCO3)N2CCCCC2)cc1` (centres undefined), the z-score is -0.435. Turning to `O=c1cc(CN2CCOCC2)nc(C2CC2)[nH]1`, the z-score was active: 5.57. Consider `O=C1/C(=C\c2ccc3c(c2)OCO3)CCC/C1=C/c1ccc2c(c1)OCO2`, for which the z-score came to 0.0229. Molecule `O=C(O)c1cc(-c2ccccc2)on1` came in with a z-score of 0.699. Take `O=C(Nc1cccc(Cl)c1)c1ccncc1`: the z-score was determined as 0.103.

As to `O=C(COC(=O)c1ccc([N+](=O)[O-])s1)NCc1ccccc1`, the z-score is -0.333. With `COc1ccc(C(=O)Nc2nc3cc(OC)c(OC)cc3c(=O)[nH]2)cc1`, the z-score is -0.0152.

On to `COc1cc(N=c2c([N+](=O)[O-])nn(-c3ccc4c(c3)OCCO4)n2O)cc(OC)c1`, for which the z-score is -0.0958. The result for `O=S(=O)(Nc1ncn[nH]1)c1ccc2ccccc2c1` reads -0.0482; that for `CC(C)Nc1oc(Cc2cccc3ccccc23)nc1C#N`, -0.618; that for `Nn1c(SCC(=O)Nc2ccc3c(c2)OCO3)nnc1C1CCCCC1`, -0.221.

For the molecule `Cc1cc(C)c(S(=O)(=O)c2ccccc2C)c(Cl)n1`, the z-score was -0.119.

The molecule `Cc1ccc(S(=O)(=O)NC2=NCN(Cc3cccnc3)CN2)cc1` registered a z-score of 1.08.

Molecule `O=C(Nc1ccc(Cc2ccncc2)cc1)C1CC1` came in with a z-score of 0.555. Take `N#Cc1ccsc1NC(=O)CN1CCN(S(=O)(=O)c2cc(Cl)ccc2Cl)CC1`: the z-score was determined as 0.00396. Consider `C=C1C(=O)O[C@H]2C1CC[C@@](C)(O)C13C=CC(C)(C21)C1(C3)C(=O)O[C@@H]2C3C(C)=CCC3[C@](C)(O)C[C@H](OC(C)=O)C21` (some centres undefined), for which the z-score was -0.257. As for `Cc1ccc(Cl)c(OCC(=O)Nc2ccc3c(c2)OCCO3)c1`, the z-score is -0.513. `CC(=S)/C=C1\Sc2ccccc2N1C` came in with a z-score of 0.0196. Turning to `O=S(=O)(c1ccccc1)c1nc(-c2ccccc2Cl)oc1NCCN1CCOCC1`, the z-score stood at 0.0264. As for `CCn1cc(Br)c(C(=O)N2CCN(c3ccccc3)CC2)n1`, the z-score was 0.339. For `Cc1cccnc1NC(=O)C(C)Oc1ccccc1` (centres undefined), the z-score amounted to 0.264.

Turning to `O=c1ccc(Oc2nc(N3CCOCC3)nc(N3CCOCC3)n2)n[nH]1`, the z-score amounted to 0.106. The same measure for `CCN(CC(=O)NC(=O)NCc1ccco1)Cc1nc2ccccc2c(=O)[nH]1`: -0.124; for `COc1cccc(N2CCN(c3ncnc4c3[nH]c3ccc(F)cc34)CC2C)c1` (centres undefined): -0.441. `CCOC(=O)NC1(Nc2ccc(Cl)cn2)Oc2ccccc2O1` yielded a z-score of 0.12. For the molecule `Cc1cccc(Nc2nc(-c3ccc4c(c3)OCCO4)cs2)c1`, the z-score was 0.0122. Regarding `COc1ccc(/C=N\NC(=O)COc2ccccc2Cl)cc1Cn1nc(C)cc1C`, the z-score is -0.212.
